Assay results: the RNAGym collection of RNA variant scans (doi:10.7554/elife.90254)
Read counts are not given, so values of variants with three or more changes are uncertain.

B1: LINE1-mini (parent)
chain: GGCAGAGCUCAACACAGCGUGGCAAAGUGGCUGUGGCUAGACUGCC

Variants of: B1
Assay: self-cleavage, relative activity (ratio to wild type); higher = more cleavage; in vitro, sequencing; the parent is a self-cleaving ribozyme

Row | Variant | self-cleavage
1 | G1U G19U C42U C45A | 0.07
2 | G1U G21A G22U C45U | 0.16
3 | G1U G21U A25C G29A | 1.25
4 | G1U G21U A41U C45U | 0.6
5 | G1U G21U C23U C42A | 0.19
6 | G1U G21U C46G | 0.56
7 | G1U G21U G22A | 1.8
8 | G1U G22C A25U | 0.24
9 | G1U G22U A26C U34A | 0.03
10 | G1U G22U G27A | 0.23
11 | G1U G22U U38C G40A G44C | 0.02
12 | G1U G27C C31U A41C C42A | 0
13 | G1U G27C G29C G30A A39G | 0.07
14 | G1U G27C U32C | 0.04
15 | G1U G27U C46U | 0.69
16 | G1U G29A U32A | 0.01
17 | G1U G29C G35C | 0.05
18 | G1U G30A C45U | 0.29
19 | G1U G30C G40A | 0.02
20 | G1U G30U C31A | 0.04
21 | G1U G33A A39G | 0.06
22 | G1U G33A G36C G44C | 0.03
23 | G1U G40A G44U | 0.06
24 | G1U U9A A12G C15A U32C C42A C46U | 0.02

Row | Variant | self-cleavage
25 | G1U U9A C18G G21A | 0.03
26 | G1U U9C A14U G21U G33A | 0.04
27 | G1U U9C A24G A25C | 0.03
28 | G1U U9G A14U G22U A39U | 0.01
29 | G1U U9G C31G U32A | 0.02
30 | G1U U9G G22C U34C | 0.01
31 | G1U U9G G36U C37U | 0.01
32 | G1U U9G U28A C46A | 0.03
33 | G1U U9G U28G G36A C37A | 0.04
34 | G1U U20A C31G | 0.05
35 | G1U U20C A39C C45G | 0.02
36 | G1U U20C C31A | 0.04
37 | G1U U20C C45U | 0.69
38 | G1U U20C G44U | 0.08
39 | G1U U28G C31U | 0.21
40 | G1U U28G G29C | 0.06
41 | G1U U28G U38A | 0.06
42 | G1U U32G C37U | 0.02
43 | G1U U32G G35U | 0.01
44 | G1U U34G C42U | 0.01
45 | G1U U38A G44C | 0.04
46 | G1U U38G C45G | 0.03
47 | G1U U43C G44U | 0.04
48 | G2A A4C A6G C42U | 0.02

Row | Variant | self-cleavage
49 | G2A A4C C18U G22C G33U U34A | 0.08
50 | G2A A4C C23U G27A | 1.64
51 | G2A A4C G17U G27C G33U | 0.14
52 | G2A A4C G21A G29A C42U | 0.14
53 | G2A A4C G29U C37G | 0.16
54 | G2A A4G A41C C46U | 0.64
55 | G2A A4G C10A G27C G30U | 0.03
56 | G2A A4G C13A C37A C46G | 0.12
57 | G2A A4G C15G G17A A39G G44A | 0
58 | G2A A4G G17U | 0.48
59 | G2A A4U A6C A11U | 0.06
60 | G2A A4U A14U | 0.07
61 | G2A A4U C10A U34G | 0.06
62 | G2A A4U G19U U38A C42U | 0.03
63 | G2A A4U G21A G22U C45A | 0.82
64 | G2A A4U G21U A26C G40U | 0.03
65 | G2A A4U G27A | 2.39
66 | G2A A4U U9G A16C G33U | 0.24
67 | G2A A6C A11G C13G G36U | 0.02
68 | G2A A6C A12C C42G | 0.04
69 | G2A A6C A12U G17U C42U | 0.14
70 | G2A A6C C10A C23A A25C G30A | 0.01
71 | G2A A6C G7U C10A G17U G27A G30U G36A A39U | 0.04
72 | G2A A6C G27U | 0.97

Row | Variant | self-cleavage
73 | G2A A6G A12G A25C C45A | 0.01
74 | G2A A6G A14U U28C G40C | 0.04
75 | G2A A6G C15A | 0.01
76 | G2A A6G G17A U34C | 0.03
77 | G2A A6G G30A U32G | 0.26
78 | G2A A6G U9A A14G U43A | 0.11
79 | G2A A6G U38A A39U | 0.2
80 | G2A A6U A11G C18G | 0.01
81 | G2A A6U C8U | 0.03
82 | G2A A6U C31A C46A | 0.13
83 | G2A A6U G21U A25C | 0.44
84 | G2A A6U G30A C42A | 0.17
85 | G2A A11C A39U G44U | 0.12
86 | G2A A11C C15A A39U | 0.08
87 | G2A A11C G21C G22A G44U | 0.1
88 | G2A A11G A12C G27U G35C G40U C42A | 0.01
89 | G2A A11G U38C | 0.02
90 | G2A A11U C13A G19U G35C | 0.04
91 | G2A A11U C15U A16U | 0.02
92 | G2A A11U G21C A26U | 0.11
93 | G2A A11U G30A C31U | 0.02
94 | G2A A12C A25C G35C A39G G40U G44C | 0.05
95 | G2A A12C C18G U34G G36A | 0.01
96 | G2A A12C G19A C23G A39G C45U | 0

Row | Variant | self-cleavage
97 | G2A A12C U32C | 0.02
98 | G2A A12G A14U | 0.06
99 | G2A A12G C13A G27C G29U G36A | 0.12
100 | G2A A12G C15A A16U A25C | 0.16
101 | G2A A12G C15G G29C C37A | 0.1
102 | G2A A12G C46A | 0.06
103 | G2A A12G G33A A41C | 0.06
104 | G2A A12U A41C | 0.15
105 | G2A A12U G35C C37G | 0.11
106 | G2A A12U U20A A26C U38A | 0.11
107 | G2A A12U U34G U43G | 0.01
108 | G2A A14C C37A | 0.09
109 | G2A A14C G22U C23G C37A G44A | 0.08
110 | G2A A14G G27C G29A G40A A41U | 0.06
111 | G2A A14G G30U | 0.13
112 | G2A A14G U20C G22A G44C | 0.12
113 | G2A A14U G36U G40A A41U | 0.13
114 | G2A A16C C18A G30A | 0.3
115 | G2A A16G G17U G29U G40A | 0.13
116 | G2A A16G G29C G30A G36U A39G | 0.1
117 | G2A A16U C31U C45A | 0.08
118 | G2A A16U C45U C46A | 0.2
119 | G2A A16U G22A G27C C42A C45U | 0.03
120 | G2A A24C A25C G33A | 0.1

Row | Variant | self-cleavage
121 | G2A A24C G27U C31G G36U C37A | 0.15
122 | G2A A24G A41G | 0.37
123 | G2A A24G G27A | 0.84
124 | G2A A24G G33C G36C C42A | 0.03
125 | G2A A24U C31A | 0.18
126 | G2A A24U G29C G33U U34C U38A U43G | 0
127 | G2A A25C A39G U43A | 0.08
128 | G2A A25C C31U | 0.04
129 | G2A A25G A26G G30C A39C | 0.08
130 | G2A A25G A41C | 0.04
131 | G2A A25G G33C | 0.08
132 | G2A A25U A41U G44U | 0.16
133 | G2A A26C U43G | 0.31
134 | G2A A39C U43A | 0.42
135 | G2A A41G U43G | 0.14
136 | G2A A41U C42A | 0.1
137 | G2A C3A A16U A25G G33U C46A | 0.37
138 | G2A C3A C8A U9G U20C G36C | 1.58
139 | G2A C3A C18U U32A | 1.16
140 | G2A C3A C23U G36C C46G | 1.34
141 | G2A C3A G5A G36U A41C | 0.88
142 | G2A C3A G5U C31A | 0.4
143 | G2A C3A G7U C15A G35C | 0.5
144 | G2A C3A G17C G19C G21A C42A | 0.77

Row | Variant | self-cleavage
145 | G2A C3A G22A C37A | 1.18
146 | G2A C3A U20G C31A A41U | 0.45
147 | G2A C3G A6C G21A | 0.36
148 | G2A C3G A12G A25U C37A | 0.65
149 | G2A C3G C10U G19U C42A G44C | 0.07
150 | G2A C3G C13A C31G U32A | 0.32
151 | G2A C3U A4G | 0.05
152 | G2A C3U A6C C18U C42A | 0.28
153 | G2A C3U A16U G19A | 0.24
154 | G2A C3U A25C G30C C31G | 0.25
155 | G2A C3U C23U U28C U34C C37U | 0.54
156 | G2A C3U G5C G19C G30A | 0.77
157 | G2A C3U G7C C23U A25U | 0.22
158 | G2A C3U G7C G21U C23U G27U G33C | 0.29
159 | G2A C3U G22U C31G | 0.21
160 | G2A C3U U9C A11G G22U A25G | 0.04
161 | G2A C3U U32A | 0.21
162 | G2A C8A A25U | 0.47
163 | G2A C8A C15U U20A G29A A39G | 1.06
164 | G2A C8A C18G A25U | 0.23
165 | G2A C8A G17U | 0.16
166 | G2A C8A G19A A25G G40A | 0.16
167 | G2A C8A G27A | 0.08
